Experimental data from PubChem BioAssay AID1347120 (National Center for Advancing Translational Sciences (NCATS), 2019).
Values joined by “and” are separate entries in the source; they are usually repeats but may differ in a detail not shown here. Equal entries are not always repeated. About 930 (0.24%) of roughly 390,000 compounds were called active. The inconclusive results got no clear call from the source; some entries with a clear call stand among them for comparison. Calls come from the whole dose curve; as a rule, active = well fitted activation curve with a large enough effect; inconclusive = small, poorly fitted or top-dose-only effect; inactive = no such curve, though single readings can be large or run the other way. Potencies of inconclusive entries are doubtful fits and often do not repeat.

Assay: qHTS for Suppressors of FUS Proteinopathy: Primary screen using FUS-linked yeast assay; note: nearly all actives have a fitted effect of over 55% in size;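 for growth rescue (activation): plate controls were DMSO vehicle for no effect and reference control for full effect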
Conditions: S. cerevisiae FUS-expressing, OD600, 24 h; Potency: growth rescue; growth rescue (activation): at 76.6 µM (top of the series)
In short: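 FUS-expressing yeast, raffinose-pregrown, induced in 2% galactose minimal medium at OD 0.005; compounds in a dilution series, 24hr at 30C. Growth restoration read as absorbance at 600 nm. CP55940 positive control, DMSO negative.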
Potency is the fitted concentration of half-maximal effect; tags give direction and shape of the fitted curve.

Row | Structure (SMILES) | Potency | growth rescue (activation)
1 | COC(=O)c1ccc(C2C(C#N)=C(N)Oc3cc(N)ccc32)cc1 (configuration not stated) | inconclusive: 44.7 µM [activator, single point] | –
2 | N#C/C(=C\c1cccc(NC(=O)c2ccccc2Cl)c1)C(=O)NCCc1ccccc1 | – | inactive: 45%
3 | Cn1c(SCc2ccc(C(C)(C)C)cc2)nnc1-c1ccco1 | inconclusive: 3.55 µM [activator, partial curve, poor fit] | –
4 | COC(=O)[C@]12C[C@H](CC(=O)NCC3CCCCC3)C(=O)N(Cc3ccco3)C1=C[C@H](C(C)(C)C)O[C@@H]2C | inconclusive: 25.1 µM [activator, single point] | –
5 | CSc1nc2ccc(NS(=O)(=O)c3cccc(Cl)c3Cl)cc2s1 | inconclusive: 22.4 µM [activator, partial curve] | –
6 | CCCNC(=O)c1cc2c3ccccc3n(C)c2s1 | – | inactive: 25.3%
7 | CC(C)CCNc1nc(Nc2ccccc2)c2cnn(C)c2n1 | inconclusive: 31.6 µM [activator, single point] | –
8 | CN(C)CCOc1ccc(-c2c(-c3ccccc3)sc3ccccc23)cc1 | inconclusive: 35.5 µM [activator, single point] | –
9 | CCOC(=O)c1ccc(-n2c(CCC(=O)O)ccc2-c2ccccc2)cc1O | inconclusive: 35.5 µM [activator, single point] | –
10 | COc1cccc(-c2nnc(SCC(=O)Nc3cccc4ccccc34)n2Cc2ccco2)c1 | inconclusive: 14.1 µM [activator, partial curve, poor fit] | –
11 | Cc1cc(F)ccc1Nc1nc2ccc(Cl)cc2n2cnnc12 | – | inactive: -11.1%
12 | CCC(C)Sc1ccc(-c2nc3cc(C)ccn3c2NC2CCCCC2)cc1 (configuration not stated) | inconclusive: 17.8 µM [activator, single point] and inconclusive: 31.6 µM [activator, single point] | –
13 | CCc1ccccc1S(=O)(=O)Cc1ccc(C(=O)NCCc2ccc(Cl)cc2)o1 | inconclusive: 35.5 µM [activator, single point] | –
14 | O=C(Nc1cc(-c2cccc(Cl)c2)nn1-c1ccccc1)c1ccccc1F | – | inactive: 2.21%
15 | COc1ccc(N2C(=O)CC(N3CCCCC3)C2=O)cc1 (configuration not stated) | – | inactive: -20.6%
16 | O=C(NCc1cccc(Cl)c1)c1cnc(N2CCOCC2)c2ccccc12 | – | inactive: 13.2%
17 | O=C(O)CCN1Cc2ccccc2C1=O | – | inconclusive: 73.4% [activator]
18 | CC(C)(C)C(=O)C(Cc1ccccc1Cl)n1cncn1 (configuration not stated) | – | inactive: -8.26%
19 | C[C@H]1CN(S(=O)(=O)c2c(F)cccc2F)CCN1S(=O)(=O)c1ccc2c(c1)OCCO2 | inconclusive: 22.4 µM [activator, partial curve, poor fit] | –
20 | Clc1cccc(Nc2nc(-c3cccnc3)cs2)c1 | – | inactive: -30.6%
21 | O=C(Nc1ccc(F)cc1F)C1CCN(C(=O)c2cnn(-c3ccccc3)c2-n2cccc2)CC1 | inconclusive: 31.6 µM [activator, single point] | –

Row | Structure (SMILES) | Potency | growth rescue (activation)
22 | Cc1ccc(-n2nnnc2SCC(=O)NCCc2ccccc2)cc1C | – | inactive: 23.5%
23 | O=C1/C(=C/c2ccc(F)cc2)SC(=S)N1Nc1ncc(C(F)(F)F)cc1Cl | inconclusive: 0.794 µM [activator, full curve, poor fit] | –
24 | CC1(C)CC(=O)c2c(nc(SCC(=O)Nc3nsc(-c4ccccc4)n3)c(C#N)c2-c2ccccc2)C1 | inconclusive: 3.98 µM [activator, full curve, poor fit] | –
25 | O=C(Nc1ccccc1)c1cc(C2CCCN(C(=O)CCc3ccccc3)C2)on1 (configuration not stated) | – | inactive: 31.6%
26 | CC(Sc1nnc(COc2ccc(Cl)cc2)n1-c1ccccc1)C(=O)O (configuration not stated) | – | inactive: 19.4%
27 | Cc1cccc(-c2nc(Nc3ccc(O)cc3)c3ccccc3n2)c1 | inconclusive: 12.6 µM [activator, partial curve, poor fit] | –
28 | Cc1cc(C)cc(-n2ccnc2SCC(=O)Nc2ccccc2F)c1 | – | inactive: -8.99%
29 | CN(Cc1ccccc1)C(=O)OCc1cn(Cc2ccccc2Cl)nn1 | inconclusive: 31.6 µM [activator, single point] | –
30 | O=C1N[C@@H](Cc2c[nH]c3ccccc23)COC(=O)[C@H](Cc2ccc(F)cc2)C/C=C\C[C@H]1CC(=O)N(CCO)Cc1ccccc1 | inconclusive: 31.6 µM [activator, single point] | –
31 | Cc1ccc(OCCn2c(C3CC(=O)N(Cc4ccc(F)cc4)C3)nc3ccccc32)c(C)c1 (configuration not stated) | inconclusive: 20 µM [activator, partial curve, poor fit] | –
32 | CCNc1c(NS(=O)(=O)c2ccc(Cl)s2)c(=O)oc2ccccc12 | – | inactive: -18.5%
33 | COc1ccc(-c2ccc(C(=O)Nc3cccc(NS(C)(=O)=O)c3)c3occc23)c(C)c1 | inconclusive: 35.5 µM [activator, single point] | –
34 | O=S(=O)(NCC(c1ccccc1)N1CCc2ccccc21)c1ccc(Cl)cc1 (configuration not stated) | inconclusive: 3.16 µM [activator, partial curve, poor fit] | –
35 | COc1cccc(C(=O)CSc2nnc(CNc3nc(-c4ccccc4)cs3)n2C)c1 | inconclusive: 31.6 µM [activator, partial curve, poor fit] | –
36 | Cc1cccc(NC(=S)N2CCC(c3nc4ccccc4o3)CC2)c1 | inconclusive: 56.2 µM [activator, partial curve, poor fit] | –
37 | Cc1cccc(C(=O)NC(=S)NNC(=O)Cc2ccccc2)c1 | inconclusive: 20 µM [activator, partial curve, poor fit] | –
38 | CCc1cnc2c(c1SCc1cc(OC)cc(OC)c1)c(=O)n(C)c(=O)n2C | – | inactive: 12.1%
39 | CCS(=O)(=O)NCCc1csc2nc(-c3ccc(OC)cc3)nn12 | – | inactive: 0.821%
40 | COc1ccc(S(=O)(=O)Nc2cccc3c2O[C@H](CN(C)C(=O)Nc2ccc4c(c2)OCO4)[C@@H](C)CN([C@H](C)CO)C3=O)cc1 | inconclusive: 28.2 µM [activator, partial curve, poor fit] | –
41 | O=c1[nH]c(C2CCCN(S(=O)(=O)c3ccccc3)C2)nc2c1nnn2Cc1ccccc1Br (configuration not stated) | inconclusive: 15.8 µM [activator, partial curve] | –
42 | O=C(CCc1ccccc1)N[C@H]1[C@@H](OC(=O)c2cnccn2)CCC[C@]12C(=O)N(Cc1ccccc1)c1ccccc12 | – | inactive: 21.3%
